The values below come from PubChem BioAssay (NCI).

The test system of the test is NCI-H322M lung. Nature of the test: NCI anticancer screen, dose series, 48 h.

“And” between values parts separate entries of the source, which are not always exact repeats. Identical values can stand only once.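 Five concentrations, 48 hours, 96-well plates. GI50 = concentration required for 50% inhibition of growth. TGI: concentration producing complete growth inhibition.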 The source made the active and inactive calls. Rule as the data show it: active = GI50 below about 0.43 µM; inactive = the rest.

Regarding `O=C1c2ccccc2-c2c1c(-c1ccc(O)cc1O)nc1ccc3ccccc3c21`, the TGI is > 100 µM.

For `O=C(Oc1cccc2cccnc12)c1cc2cc(CCl)ccc2oc1=O`, the TGI is > 100 µM.

For `O=C(N/N=C(/COc1ccccc1Cl)N=Cc1cccnc1)c1ccncc1`, the TGI was > 100 µM.

Take `C=CCCC1CCCNC1=S` (configuration not stated): the TGI was > 100 µM.

`COc1ccc2c(c1)CC[C@@H]1[C@@H]2CC[C@]2(C)C(=O)/C(=C/c3ccc(C#N)cc3)C[C@@H]12`: the TGI was > 100 µM.

Take `O=c1c2ccccc2nc2n1CCc1c-2[nH]c2ccc(Br)cc12`: the TGI is > 100 µM.

`CC(C)OC(=O)C1=C2c3ncccc3C(=O)N2[C@@H](Cl)[C@@H](Cl)[C@@H]1Cl`: the TGI was > 100 µM.

The compound `CC(=O)c1sc2c(c1OC(=O)c1ccc(Cl)cc1Cl)c(=O)n(-c1ccccc1)c(=S)n2-c1ccccc1` showed a TGI of 21.1 µM.

Regarding `Cc1c(-c2ccccc2)c(C#N)c2nnn(-c3ccc([N+](=O)[O-])cc3)c(=O)n12`, the TGI is 89 µM.

Turning to `COc1cc2cccc(N=Cc3ccccc3Cl)c2cc1OC`, the TGI was > 100 µM.

On to `FC(F)(F)c1ccc(-c2cnc(Cl)nc2NC2CCCCCC2)cc1`, for which the GI50 is > 100 µM and the TGI is > 100 µM.

`COc1cc2c(c(OC)c1OC)-c1cccc(=O)cc1C(NC(C)=O)CC2` (configuration not stated): the TGI amounted to 2.5 µM.

For the compound `O=C(O)CN1CCNCCNCC1`, the TGI was > 100 µM.

As to `O=C(O)CNC(=O)C(CSC(=O)OCC1c2ccccc2-c2ccccc21)NC(=O)CCC(NC(=O)OCC1c2ccccc2-c2ccccc21)C(=O)O` (configuration not stated), the TGI is > 100 µM.

For the compound `CCCCCCCCc1cc[n+](CC(=O)c2ccc(Br)cc2)cc1`, the GI50 was 2.62 µM and the TGI is 8.24 µM.

With `O=C(O/N=C1/CCCC/C1=C\c1ccccc1)c1ccc(Cl)c(Cl)c1`, the TGI amounted to 86.8 µM.

`CN(C)CC1CCC(=C2CCCC2)C1=O` (configuration not stated) displayed a TGI of 31.8 µM.

For `CCC12CCCN3CCc4c(n(c5ccccc45)C(O)(C(=O)OC)C1)C32` (configuration not stated), the TGI was > 100 µM.

On to `O=C(CCl)Nc1ccc2c(c1)C(=O)c1ccccc1C2=O`, for which the GI50 is 5.57 µM and the TGI was found to be 13.5 µM.

For `COC(=O)C(C(=O)C(=O)Nc1nc2ccc([N+](=O)[O-])cc2s1)c1nc2ccc(Cl)cc2[nH]c1=O` (configuration not stated), the TGI was > 100 µM.

For `Cc1cc(NN)nc2n[nH]c(N)c12`, the TGI was > 100 µM.

For `C=CN1CCN(c2ccccc2)P1(=O)Oc1ccccc1` (configuration not stated), the TGI was > 100 µM.

On to `O=C(CNc1cccc(Cl)c1)Nn1c(-c2ccccc2)nc2ccccc2c1=O`, for which the TGI worked out at 28.8 µM.

As for `O=C(NNC(=O)c1ccccc1O)c1ccccc1O`, the TGI is > 100 µM.

Regarding `O=P(O)(O)C(NCC(O)CN1CCOCC1)P(=O)(O)O` (configuration not stated), the TGI is > 100 µM.

Take `CCCC(c1nnnn1C1CCCCC1)N1CCN(C(=O)c2ccco2)CC1` (configuration not stated): the GI50 is > 100 µM and the TGI is > 100 µM.

With `COC(=O)c1nc2c(C)c(O)c(Oc3c(C)c(O)c(O)c([C@H](C)CCC=C(C)C)c3O)c([C@H](C)CCC=C(C)C)c2o1`, the outcome was inactive.

Compound `Cc1nnc(N)nc1C/C=C/C(Sc1ccc(Cl)cc1)c1ccccc1` (configuration not stated) gave a TGI of 23.4 µM.

As to `N#CCCN(CCCN(C(=O)N(c1ccccc1)c1ccccc1)c1ccccc1)C(=O)Nc1ccccc1`, the TGI was > 100 µM.

Take `Cc1cc(-c2ncc(-c3cccnc3)cc2/C=C/c2ccccc2)cnc1-c1cccnc1`: the GI50 is 5.75 µM and the TGI was > 100 µM.

Turning to `Cc1cccc(NC(=O)/C=C/c2ccccc2)c1C`, the TGI was > 100 µM.

For `O=C(O)C1[C@@H](C(=O)O)C1(Br)CBr` (some centres not stated), the TGI is > 100 µM.

For `C[C@@]12C(=O)OC(=O)[C@]1(C)[C@H]1CC[C@@H]2O1`, the GI50 is 1.67 µM; the TGI was 4.33 µM and 5.71 µM.

`CN(C)CCn1nc2c3c(c(C(=O)NCCCN(C)CCCNC(=O)c4ccc5c6c(nn5CCN(C)C)-c5ccccc5Nc46)ccc31)Nc1ccccc1-2` gave a TGI of 0.531 µM.

With `CC(=O)N1CCc2[nH]c3ccccc3c2CC1`, the TGI is > 100 µM.

On to `CCCCNCC(O)c1cc2c(Cl)cc(Cl)cc2c2cc(C(F)(F)F)ccc12` (configuration not stated), for which the GI50 was 1.59 µM and the TGI stood at 3.13 µM.

For the compound `N=[N+]=NC1C(O)C(CO)OC1n1cnc2c(N)ncnc21` (configuration not stated), the TGI is > 100 µM.

With `COc1ccc2nc(NNC(=O)c3cnccn3)c3cccn3c2c1`, the GI50 is 0.273 µM and the TGI amounted to 35.9 µM.

`COc1cc(C2=NNC(c3ccc(N(C)C)cc3)C2)cc(OC)c1OC` (configuration not stated): the GI50 is 12.3 µM and the TGI is > 100 µM.

With `Cc1ccc(NC(=O)OCC(COc2ccc(Cl)cc2)OC(=O)Nc2ccc(C)cc2)cc1` (configuration not stated), the TGI was > 100 µM.

In turn, `O=C(/C=C/c1cccc(Br)c1)c1ccc(Cl)cc1` yielded a TGI of 35.6 µM.

In the case of `Cc1ccc(/C=N/Nc2ccccn2)s1`, the TGI was > 100 µM.

As for `[O-]c1ccccc1/C=N/c1nccs1.[O-]c1ccccc1/C=N/c1nccs1.[O]=[U+2]=[O]`, the GI50 is > 100 µM and the TGI is > 100 µM.

Take `COc1ccc(NC(=S)N/N=C/c2cccc(C)n2)cc1`: the TGI was > 100 µM.

As for `CS(=O)(=O)N1CC(CI)c2ccc(O)cc21` (configuration not stated), the TGI was determined as 18.8 µM.

On to `NC(N)=NS(=O)(=O)c1ccc(Nc2c3ccccc3nc3c(C(=O)NNCCO)cccc23)cc1`, for which the TGI was > 1 µM.

With `NC(=O)SCC(=O)Nc1ccc2cccc3c2c1CC3`, the TGI was > 100 µM.

In the case of `Cc1[nH]c2nccn2c(=O)c1CCCl`, the TGI is > 100 µM.

As for `O=C(NCCCCNC(=O)OCc1ccc2c(Cl)cc(Cl)c(O)c2n1)OCc1ccc2c(Cl)cc(Cl)c(O)c2n1`, the GI50 was 4.69 µM and the TGI was > 100 µM.

The compound `C[n+]1c(-c2ccccc2)cc2/c(=C\c3ccccc3)c3ccccc3n21` gave a TGI of 13.8 µM.

With `CC1(C)SC2C(NC(=O)C(C(=O)O)c3ccccc3)C(=O)N2C1C(=O)O` (configuration not stated), the TGI was > 100 µM.

Regarding `Cc1ccc(C2(c3ccc(C)cc3)SC(=C(C#N)C#N)c3ccccc32)cc1`, the TGI was > 100 µM.

In the case of `COc1cc(-c2nc3ccccc3s2)ccc1OCCCCCOc1cc2c(cc1OC)C(=O)N1CCC[C@H]1C=N2`, the GI50 was 0.923 µM and the TGI came to 13.2 µM.

`COc1ccc(OC)c(NC(=O)C2=C(C)NC(C)=C(C(=O)Nc3cc(OC)ccc3OC)C2c2ccco2)c1`: the TGI was > 100 µM.

`COc1cc(-c2n[nH]nc2-c2ccc3c(c2)OCCO3)cc(OC)c1OC`: the GI50 is 0.0673 µM and the TGI is > 100 µM.

`CNc1ccc(C(=O)CC(O)CCC(C)C2OC(=O)CC(O)CC(=O)CC(O)CC(O)CC(O)CC(O)CC3(O)CC(O)C(C(=O)NCCN(C)C)C(CC(OC4OC(C)C(O)C(NC(=O)CN5CCN(CCO)CC5)C4O)/C=C/C=C/C=C/C=C\C=C/C=C/C=C/C2C)O3)cc1` (configuration not stated): the GI50 is 0.183 µM and the TGI came out at 0.778 µM.

Consider `COc1cc(/C=N/Nc2ncnc3[nH]ncc23)ccc1O`, for which the GI50 was > 21.1 µM and the TGI was > 25 µM.

Regarding `NS(=O)(=O)N(c1cc(C(F)(F)F)cc(C(F)(F)F)c1)C1CCN(Cc2ccc(F)cc2)CC1`, the GI50 was 11.5 µM and the TGI worked out at 23.6 µM.

For `N#CCN1c2ccccc2CCC1Cl` (configuration not stated), the TGI was > 10 µM.

`COc1ccc(N2C(=O)C3CC(c4ccc(C)cc4)c4c([nH]c5ccccc45)C3C2=O)cc1` (configuration not stated): the TGI was > 82.6 µM.

For the compound `CC(=O)OC1COC(N2CCc3ccccc32)C(OC(C)=O)C1OC(C)=O` (configuration not stated), the TGI was > 100 µM.

With `N#CCCN(CCC#N)CCN(CCN(CCC#N)CCC#N)CCN(CCC#N)CCC#N`, the TGI is > 100 µM.

Turning to `O=C(O)CC(O)(c1ccccc1C(=O)O)c1cccc2ccccc12` (configuration not stated), the TGI was > 100 µM.

`CC(C)(C)c1ccc(C(=O)Nc2sc3c(c2C#N)CCC(=O)C3)cc1`: the GI50 was 11.8 µM and the TGI is > 100 µM.

Consider `Oc1ccc(-c2nn3c(CCCCCCCCc4nnc5sc(-c6ccc(O)cc6)nn45)nnc3s2)cc1`, for which the TGI is > 100 µM.

Regarding `CC(C)c1cc(C(=O)N2Cc3ccc(CN4CCN(C)CC4)cc3C2)c(O)cc1O`, the GI50 was 11 µM and 1.8 µM; the TGI is > 100 µM and 71.9 µM.

As for `COc1ccc(/C=C(\C#N)c2nc3ccccc3c(=O)[nH]2)cc1`, the TGI is > 100 µM.

On to `Cc1nc2cc([N+](=O)[O-])ccc2c(NCCCN(C)C)c1C`, for which the TGI came out at 35.7 µM.

Regarding `COc1ccc(=[O+]C)c2nssc1-2`, the TGI is > 100 µM.

`C=C1CC(Cn2ccc(=O)[nH]c2=O)(c2ccc(OC)cc2)OC1=O` (configuration not stated): the TGI was > 100 µM.

`O=C1/C(=C/c2ccccc2)CN(C(=O)C(F)(F)F)C/C1=C\c1ccccc1` registered a TGI of 18.6 µM.

Consider `CCN(Cc1ccncc1)c1ccc(CO)c(Cl)c1`, for which the GI50 was 58.9 µM and the TGI was > 100 µM.

Consider `CCN1CCC(Oc2c(C#N)ncc3[nH]c4ncccc4c23)CC1`, for which the GI50 is 6.58 µM and the TGI was > 50 µM.

For `Cc1cc(C)c(-c2cc(O)c(-c3c(C)cc(C)cc3C)cc2O)c(C)c1`, the GI50 is 7.48 µM and the TGI is > 100 µM.

Regarding `CC(=O)C(C)CCOC1(C)OCCC1C` (configuration not stated), the TGI was > 100 µM.

On to `NCCOc1ncccc1/C=C1\c2ccccc2-c2ccc(F)cc21`, for which the GI50 was 1.74 µM and the TGI is 3.86 µM.

Turning to `CCOC(=O)CCC(C(=O)OCC)n1nnc2ccc(Nc3c(C)[n+]([O-])c4ccc(Cl)cc4[n+]3[O-])cc21` (configuration not stated), the TGI was > 100 µM.

Consider `Cc1cc(OCC(O)CO)ccc1-c1ccccc1` (configuration not stated), for which the TGI is > 100 µM.

Take `c1ccc(-c2cc(-c3cccs3)c(-c3cccs3)s2)cc1`: the TGI was > 100 µM.

For `CN(C)Cc1cc(/C(=C(\C#N)c2ccccc2)c2ccc(O)cc2)ccc1O`, the TGI came to 32.3 µM.

Take `CCCCNc1nc2nc[nH]c2c(=O)[nH]1`: the TGI was > 100 µM.

Consider `Nc1cc2c([nH]c[n+]2CC#CCCl)c(SCC#CCCl)n1`, for which the GI50 is 1.74 µM and the TGI was found to be 3.59 µM.

Compound `c1ccc(CSc2nc(N3CCCCC3)c3cn[nH]c3n2)cc1` had a TGI of 74.2 µM.

Consider `O=C(O)C1(c2ccccc2)CCCNCC1` (configuration not stated), for which the TGI was > 100 µM.

Turning to `COc1ccc(/C=C(\C#N)c2ccc(OC)cc2)cc1`, the GI50 was > 100 µM and the TGI is > 100 µM.

With `Cc1ccccc1-n1c(=O)sc2c(=O)n(-c3ccccc3)c(=S)[nH]c21`, the TGI was > 100 µM.

`COc1cccc2c1-c1ccccc1[C@H](Nc1ccccc1)[C@@]2(C)O`: the TGI was 23.5 µM.

For `O=c1[nH]cnc2c(COCCCO)c[nH]c12`, the TGI is > 100 µM.
